# Measurements: the supplement of paper PMC12217912
# Some of the results follow. Sequences were assembled here from the parent chain. Inactive controls read about 0.05.
# B1: TEV protease; numbered along this chain (parent)
# chain: MGESLFKGPRDYNPISSSICHLTNESDGHTTSLYGIGFGPFIITNKHLFRRNNGTLVVQSLHGVFKVKDTTTLQQHLVDGRDMIIIRMPKDFPPFPQKLKFREPQREERICLVTTNFQTKSMSSMVSDTSCTFPSGDGIFWKHWIQTKDGQCGSPLVSTRDGFIVGIHSASNFTNTNNYFTSVPKNFMELLTNQEAQQWVSGWRLNADSVLWGGHKVFMVKPEEPFQPVKEATQL
# Variants of: B1
# Assay: raw area under fraction-flipped curve 0-4 h after induction (AUC4h, not background-subtracted), DNA-recorder readout of cleavage of the substrate (dimensionless); higher = more cleavage of the substrate by the protease variant
# Settings: temperature: 34 °C; time window: 0-4 h after rhamnose induction
# Procedure: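 In vivo DNA recorder in E. coli TOP10(DE3) ΔrhaA at 34 °C. Each TEVp single-site mutant (parent TEVp 0) is paired with a single-site variant of the 7-mer TEVs (canonical ENLYFQ|S). The substrate sits between flexible linkers in a Bxb1-sfGFP-TEVs-SsrA fusion, so cleavage stabilises Bxb1 and speeds flipping of a recombination array, read by NGS. The value is the raw area under the fraction-flipped curve over 0-4 h after rhamnose induction (AUC4h), with ≥20 reads per time point. It is not background-subtracted; inactive controls average about 0.047.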
# 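Further: Bxb1 expression induced with 0.2% (w/v) L-rhamnose at OD600 near 0.5, cultures sampled hourly, flipped fraction per protease–substrate barcode pair counted by paired-end Illumina sequencing.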
variant,measurement,value
MGESLFKGPRDYNPISSSICHLTNESDGHTTSLYGIGFGPFIITNKHLFRRNNGTLVVQSLHGVFKVKDTTTLQQHLVDGRDMIIIRMPKDFPPFPQKLKFREPQREERICLVTTNFQTKSMSSMVSDTSCTFPSGDGIFWKHWIQTKDGQCGSPLVSTRDGFIVGIHSASNFTNTNNYFTSVPKNFMELLTNQEAQQWVSGWRLNADSVLWGGHKVFMVKHEEPFQPVKEATQL [P222H],area with substrate ENLYFQA,0.0814
same,area with substrate ENLYFQC,0.124
same,area with substrate ENLYFQD,0.0671
same,area with substrate ENLYFQE,0.0957
same,area with substrate ENLYFQF,0.0661
same,area with substrate ENLYFQG,0.09
same,area with substrate ENLYFQH,0.081
same,area with substrate ENLYFQI,0.0571
same,area with substrate ENLYFQK,0.0469
same,area with substrate ENLYFQL,0.0734
same,area with substrate ENLYFQM,0.0604
same,area with substrate ENLYFQN,0.0741
same,area with substrate ENLYFQP,0.0419
same,area with substrate ENLYFQR,0.0564
same,area with substrate ENLYFQS,0.0928
same,area with substrate ENLYFQV,0.0611
same,area with substrate ENLYFQW,0.0733
same,area with substrate ENLYFQY,0.0686
MGESLFKGPRDYNPISSSICHLTNESDGHTTSLYGIGFGPFIITNKHLFRRNNGTLVVQSLHGVFKVKDTTTLQQHLVDGRDMIIIRMPKDFPPFPQKLKFREPQREERICLVTTNFQTKSMSSMVSDTSCTFPSGDGIFWKHWIQTKDGQCGSPLVSTRDGFIVGIHSASNFTNTNNYFTSVPKNFMELLTNQEAQQWVSGWRLNADSVLWGGHKVFMVKPEEPCQPVKEATQL [F226C],area with substrate ENLYFQA,0.1
same,area with substrate ENLYFQC,0.121
same,area with substrate ENLYFQD,0.0674
same,area with substrate ENLYFQG,0.0659
same,area with substrate ENLYFQI,0.0459
same,area with substrate ENLYFQK,0.0573
same,area with substrate ENLYFQL,0.0783
same,area with substrate ENLYFQM,0.0964
same,area with substrate ENLYFQN,0.0931
same,area with substrate ENLYFQS,0.111
same,area with substrate ENLYFQT,0.0561
same,area with substrate ENLYFQW,0.0611
same,area with substrate ENLYFQY,0.074
MGESLFKGPRDYNPISSSICHLTNESDGHTTSLYGIGFGPFIITNKHLFRRNNGTLVVQSLHGVFKVKDTTTLQQHLVDGRDMIIIRMPKDFPPFPQKLKFREPQREERICLVTTNFQTKSMSSMVSDTSCTFPSGDGIFWKHWIQTKDGQCGSPLVSTRDGFIVGIHSASNFTNTNNYFTSVPKNFMELLTNQEAQQWVSGWRLNADSVLWGGHKVFMVRPEEPFQPVKEATQL [K221R],area with substrate ENLYFQA,0.124
same,area with substrate ENLYFQC,0.0928
same,area with substrate ENLYFQD,0.0801
same,area with substrate ENLYFQE,0.0743
same,area with substrate ENLYFQF,0.0656
same,area with substrate ENLYFQG,0.0819
same,area with substrate ENLYFQH,0.0793
same,area with substrate ENLYFQI,0.0643
same,area with substrate ENLYFQK,0.074
same,area with substrate ENLYFQL,0.0603
same,area with substrate ENLYFQM,0.0833
same,area with substrate ENLYFQN,0.0704
same,area with substrate ENLYFQP,0.0523
same,area with substrate ENLYFQQ,0.0727
same,area with substrate ENLYFQR,0.0616
same,area with substrate ENLYFQS,0.105
same,area with substrate ENLYFQT,0.0508
same,area with substrate ENLYFQV,0.0395
same,area with substrate ENLYFQW,0.0733
same,area with substrate ENLYFQY,0.0634
MGESLFKGPRDYNPISSSICHLTNESDGHTTSLYGIGFGPFIITNKHLFRRNNGTLVVQSLHGVFKVKDTTTLQQHLVDGRDMIIIRMPKDFPPFPQKLKFREPQREERICLVTTNFQTKSMSSMVSDTSCTFPSGDGIFWKHWIQTKDGQCGSPLVSTRDGFIVGIHSASNFTNTNNYFTSVPKNFMELLTNQEAQQWVSGWRLNADSVLWGGHKVFMVKPECPFQPVKEATQL [E224C],area with substrate ENLYFQA,0.0881
same,area with substrate ENLYFQC,0.0904
same,area with substrate ENLYFQD,0.0465
same,area with substrate ENLYFQG,0.0886
same,area with substrate ENLYFQH,0.0774
same,area with substrate ENLYFQI,0.0749
same,area with substrate ENLYFQL,0.0455
same,area with substrate ENLYFQN,0.0516
same,area with substrate ENLYFQP,0.0445
same,area with substrate ENLYFQS,0.0961
same,area with substrate ENLYFQT,0.0749
same,area with substrate ENLYFQV,0.0645
same,area with substrate ENLYFQW,0.0579
same,area with substrate ENLYFQY,0.0622
MGESLFKGPRDYNPISSSICHLTNESDGHTTSLYGIGFGPFIITNKHLFRRNNGTLVVQSLHGVFKVKDTTTLQQHLVDGRDMIIIRMPKDFPPFPQKLKFREPQREERICLVTTNFQTKSMSSMVSDTSCTFPSGDGIFWKHWIQTKDGQCGSPLVSTRDGFIVGIHSASNFTNTNNYFTSVPKNFMELLTNQEAQQWVSGWRLNADSVLWGGHKVFMVKPERPFQPVKEATQL [E224R],area with substrate ENLYFQA,0.0819
same,area with substrate ENLYFQC,0.0884
same,area with substrate ENLYFQD,0.0736
same,area with substrate ENLYFQG,0.0956
same,area with substrate ENLYFQI,0.0631
same,area with substrate ENLYFQK,0.0482
same,area with substrate ENLYFQL,0.0582
same,area with substrate ENLYFQM,0.0808
same,area with substrate ENLYFQN,0.0903
same,area with substrate ENLYFQS,0.0909
same,area with substrate ENLYFQT,0.0641
same,area with substrate ENLYFQV,0.0686
same,area with substrate ENLYFQY,0.0706
MGESLFKGPRDYNPISSSICHLTNESDGHTTSLYGIGFGPFIITNKHLFRRNNGTLVVQSLHGVFKVKDTTTLQQHLVDGRDMIIIRMPKDFPPFPQKLKFREPQREERICLVTTNFQTKSMSSMVSDTSCTFPSGDGIFWKHWIQTKDGQCGSPLVSTRDGFIVGIHSASNFTNTNNYFTSVPKNFMELLTNQEAQQWVSGWRLNADSVLWGGHKVFMVKPEKPFQPVKEATQL [E224K],area with substrate ENLYFQA,0.103
same,area with substrate ENLYFQC,0.12
same,area with substrate ENLYFQD,0.0706
same,area with substrate ENLYFQH,0.0719
same,area with substrate ENLYFQL,0.0597
same,area with substrate ENLYFQM,0.0914
same,area with substrate ENLYFQN,0.0731
same,area with substrate ENLYFQR,0.0356
same,area with substrate ENLYFQS,0.0997
same,area with substrate ENLYFQT,0.0668
same,area with substrate ENLYFQV,0.064
same,area with substrate ENLYFQW,0.0761
same,area with substrate ENLYFQY,0.0665
MGESLFKGPRDYNPISSSICHLTNESDGHTTSLYGIGFGPFIITNKHLFRRNNGTLVVQSLHGVFKVKDTTTLQQHLVDGRDMIIIRMPKDFPPFPQKLKFREPQREERICLVTTNFQTKSMSSMVSDTSCTFPSGDGIFWKHWIQTKDGQCGSPLVSTRDGFIVGIHSASNFTNTNNYFTSVPKNFMELLTNQEAQQWVSGWRLNADSVLWGGHKVFMVKPESPFQPVKEATQL [E224S],area with substrate ENLYFQA,0.102
same,area with substrate ENLYFQC,0.096
same,area with substrate ENLYFQD,0.0666
same,area with substrate ENLYFQE,0.0644
same,area with substrate ENLYFQF,0.056
same,area with substrate ENLYFQG,0.0902
same,area with substrate ENLYFQI,0.0684
same,area with substrate ENLYFQK,0.0666
same,area with substrate ENLYFQL,0.0602
same,area with substrate ENLYFQM,0.0887
same,area with substrate ENLYFQN,0.106
same,area with substrate ENLYFQP,0.0549
same,area with substrate ENLYFQR,0.0549
same,area with substrate ENLYFQS,0.095
same,area with substrate ENLYFQT,0.0611
same,area with substrate ENLYFQV,0.0686
same,area with substrate ENLYFQW,0.0636
MGESLFKGPRDYNPISSSICHLTNESDGHTTSLYGIGFGPFIITNKHLFRRNNGTLVVQSLHGVFKVKDTTTLQQHLVDGRDMIIIRMPKDFPPFPQKLKFREPQREERICLVTTNFQTKSMSSMVSDTSCTFPSGDGIFWKHWIQTKDGQCGSPLVSTRDGFIVGIHSASNFTNTNNYFTSVPKNFMELLTNQEAQQWVSGWRLNADSVLWGGHKVFMVKPEWPFQPVKEATQL [E224W],area with substrate ENLYFQA,0.119
same,area with substrate ENLYFQC,0.0994
same,area with substrate ENLYFQD,0.0627
same,area with substrate ENLYFQE,0.0529
same,area with substrate ENLYFQF,0.0805
same,area with substrate ENLYFQG,0.0922
same,area with substrate ENLYFQH,0.0682
same,area with substrate ENLYFQI,0.0559
same,area with substrate ENLYFQK,0.0649
same,area with substrate ENLYFQL,0.0624
same,area with substrate ENLYFQM,0.0874
same,area with substrate ENLYFQN,0.0855
same,area with substrate ENLYFQP,0.0606
same,area with substrate ENLYFQQ,0.071
same,area with substrate ENLYFQR,0.0632
same,area with substrate ENLYFQS,0.0969
same,area with substrate ENLYFQT,0.0571
same,area with substrate ENLYFQV,0.0642
same,area with substrate ENLYFQW,0.0646
